Where “and” joins values, the source holds several entries; their conditions need not be identical. Equal entries are not always repeated. The shares of active, inactive and inconclusive entries below differ from those in the screen. Where the call is inconclusive, the potency comes from a doubtful curve fit. Calls of active or inactive are those of the source. Unless noted, the call rests on the fitted dose curve.
Assay: qHTS assay to identify small molecule agonists of the endoplasmic reticulum stress response signaling pathway (AID 1159516; active means well fitted activation curve with a large enough effect in the signal ratio in the repeat runs, not every such curve was filed as active; inconclusive means weak or mixed curves, or effect the other way; the % refers to the signal ratio; on activation: on the % scale 0 is the no-effect control and ±100 the full control effect)
Settings: ESRE-bla HeLa, ER stress beta-lactamase reporter, 5 h; activation: at 61 µM (top of the series) unless noted
Procedure, shortened: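 Read-out is beta-lactamase cleavage of a FRET substrate (405 nm excitation; 460 and 530 nm emissions) in ESRE-bla HeLa cells after a 5 hr compound exposure at 37 C. Substrate incubation ran 2 hr at room temperature.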
With `SCCCCCCCCS` the Potency was inconclusive: 34.7 µM [cytotoxic, partial curve]. With `Cc1c(C)c2c(c(C)c1O)CCC(C)(COc1ccc(CC3SC(=O)NC3=O)cc1)O2` (stereo not drawn) the Potency was inconclusive: 54.9 µM [cytotoxic, single point] and the activation was inconclusive: 10.7%. In the case of `CCCCCCOc1cc(C)c(O)c(C)c1C`, the Potency is reported as inconclusive: 55.6 µM [cytotoxic]. In the case of `Cc1cc(O)c(C(C)(C)C)cc1Sc1cc(C(C)(C)C)c(O)cc1C`, the Potency is reported as inconclusive: 38.8 µM [cytotoxic, partial curve]. In the case of `CCCCCCCCCCCCN(CCO)CCO`, the Potency is reported as inconclusive: 21.8 µM. With `CCCCCCCCCCCCCC[P+](CCCC)(CCCC)CCCC` the Potency was inconclusive: 30.7 µM [cytotoxic, partial curve] and inconclusive: 30.9 µM [cytotoxic, partial curve]. With `CCCCC(CC)COC(=O)c1ccc(O)cc1` (stereo not drawn) the Potency was inconclusive: 61.4 µM [cytotoxic] and inconclusive: 49 µM [cytotoxic, partial curve]. With `c1ccc(Nc2cccc3ccccc23)cc1` the Potency was inconclusive: 39.4 µM [cytotoxic, partial curve, poor fit]. In the case of `CCCCCCCOC(=O)c1ccc(O)cc1`, the Potency is reported as inconclusive: 49 µM [cytotoxic, partial curve] and inconclusive: 49 µM [cytotoxic]. In the case of `CC(C)(C)c1ccc(C(O)CCCN2CCC(C(O)(c3ccccc3)c3ccccc3)CC2)cc1` (stereo not drawn), the Potency is reported as inconclusive: 26.8 µM [cytotoxic, single point]. In the case of `CCCCCCCC/C=C/CCCCCCCC1=NCCN1CCO`, the Potency is reported as inconclusive: 61.6 µM [cytotoxic]. In the case of `CSc1ccc2c(c1)N(CCC1CCCCN1C)c1ccccc1S2` (stereo not drawn), the Potency is reported as inconclusive: 61.4 µM [cytotoxic, single point] and the activation is reported as inconclusive: -4.36%. For `Oc1ccc(O)cc1`, the Potency was inconclusive: 24.4 µM [rising, partial curve] and the activation was inconclusive: -7.57% and inconclusive: -2.07%. For `CCCCCCCCCCCCCC[P+](CCCC)(CCCC)CCCC` (tested in a mixture with another compound), the Potency was inconclusive: 43.9 µM [falling, partial curve]. For `C=C(c1ccc(C(=O)O)cc1)c1cc2c(cc1C)C(C)(C)CCC2(C)C`, the Potency was inconclusive: 54.9 µM [single point] and the activation was inconclusive: -0.711%. For `CCCCCCCCCCCCCCCC[N+](C)(C)Cc1ccccc1`, the Potency was inconclusive: 63.6 µM [cytotoxic, single point] and inconclusive: 55.9 µM [cytotoxic] and the activation was inconclusive: -10.4%. For `CC1=C(/C=C/C(C)=C/C=C/C(C)=C\C=O)C(C)(C)CCC1`, the activation was inconclusive: -3.71%. In the case of `COc1cccc(-c2ccc(/C=C\CN3CCCCCC3)cc2Cl)c1`, the Potency is reported as inconclusive: 43.4 µM.

Assay: qHTS assay to identify small molecule agonists of the endoplasmic reticulum stress response signaling pathway - cell viability counter screen (AID 1159517); further: nearly all actives have a fitted effect of over 50% in size
Settings: ESRE-bla HeLa viability, CellTiter-Glo luminescence, 5 h; series mostly up to 61 µM
Procedure, shortened: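 Cells, HeLa ESRE-bla; density, 1,500/well; dosing, 5 hr at 37 C, 5% CO2; readout, CellTiter-Glo luminescence after 30 min RT.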
With `SCCCCCCCCS` the Potency was active: 34.7 µM. In the case of `Cc1c(C)c2c(c(C)c1O)CCC(C)(COc1ccc(CC3SC(=O)NC3=O)cc1)O2` (stereo not drawn), the Potency is reported as inconclusive: 61.6 µM [cytotoxic, single point]. With `CCCCCCOc1cc(C)c(O)c(C)c1C` the Potency was active: 55.6 µM. For `Cc1cc(O)c(C(C)(C)C)cc1Sc1cc(C(C)(C)C)c(O)cc1C`, the Potency was active: 21.8 µM. With `CCCCCCCCCCCCN(CCO)CCO` the Potency was active: 43.5 µM. In the case of `CCCCCCCCCCCCCC[P+](CCCC)(CCCC)CCCC`, the Potency is reported as active: 13.7 µM and active: 15.5 µM. With `CCCCC(CC)COC(=O)c1ccc(O)cc1` (stereo not drawn) the Potency was inconclusive: 43.5 µM [cytotoxic] and active: 49 µM. With `c1ccc(Nc2cccc3ccccc23)cc1` the Potency was inconclusive: 44.2 µM [cytotoxic, partial curve, poor fit] and inconclusive: 54.9 µM [cytotoxic, single point]. With `CCCCCCCOC(=O)c1ccc(O)cc1` the Potency was inconclusive: 55 µM [cytotoxic, single point] and active: 54.9 µM. With `CC(C)(C)c1ccc(C(O)CCCN2CCC(C(O)(c3ccccc3)c3ccccc3)CC2)cc1` (stereo not drawn) the Potency was active: 21.3 µM. For `CCCCCCCC/C=C/CCCCCCCC1=NCCN1CCO`, the Potency was active: 43.6 µM. With `CSc1ccc2c(c1)N(CCC1CCCCN1C)c1ccccc1S2` (stereo not drawn) the Potency was active: 43.5 µM and inconclusive: 26.8 µM [cytotoxic]. For `CCCCCCCCCCCCCC[P+](CCCC)(CCCC)CCCC` (tested in a mixture with another compound), the Potency was active: 22 µM. With `CC1=C(/C=C/C(C)=C/C=C/C(C)=C\C=O)C(C)(C)CCC1` the Potency was active: 41.3 µM. For `COc1cccc(-c2ccc(/C=C\CN3CCCCCC3)cc2Cl)c1`, the Potency was inconclusive: 54.7 µM [cytotoxic].
Potency means the concentration at half of the fitted maximal effect; tags describe the fitted curve by direction and shape or compound fluorescence and quenching.
